Test results reported in PubChem BioAssay AID651820 (National Center for Advancing Translational Sciences (NCATS), 2012).
Out of some 340,000 compounds screened, about 12,000 (3.5%) were called active. The inconclusive results got no clear call from the source; some entries with a clear call stand among them for comparison. Calls come from the whole dose curve; as a rule, active = well fitted inhibition curve with a large enough effect; inconclusive = small, poorly fitted or top-dose-only effect, or another doubt; inactive = no such curve, though single readings can be large or run the other way. No potency is given beside an inconclusive call; the fits are too rough. Some structures have more than one record in an assay (separate samples or runs), and their calls can disagree.

Test: qHTS Assay for Inhibitors of Hepatitis C Virus (HCV)
Settings: Huh7.5.1 HCVcc-Cre (HCVcc is cell-culture hepatitis C virus) infection, luciferase reporter, 44 h; activity change, negative = inhibition: at 41.8 µM (top of the series) unless noted
How it was run: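 Seed cells (1,000/well) for 4 h; treat with compound and infect with HCVcc-Cre, moi about 0.5. Incubate 44 h, then detect luciferase activity.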
% is set by controls: 0 for no effect and ±100 for the full control effect; potency is the fitted concentration of half-maximal effect; tags give direction and shape of the fitted curve.

Row | Structure (SMILES) | Potency | activity change, negative = inhibition
1 | O=c1cc2c(nn1Cc1cccc([N+](=O)[O-])c1)-c1ccccc1CC2 | active: 12.6 µM | –
2 | Cc1c(Br)cc(C(=O)OC2CCN(C)CC2)c(C)c1C | inconclusive [inhibitor, partial curve] | –
3 | Cc1ccc(C(=O)N/C(=C/c2cccs2)C(=O)NCc2ccco2)cc1 | – | inactive: 18.6%
4 | Clc1ccc(CNC2CCN(Cc3ccccc3)CC2)cc1 | active: 8.91 µM | –
5 | COc1ccc(N2CCN(CC(=O)NC(=O)NC(C)(C)C)CC2)cc1 | inconclusive [inhibitor, single point] | –
6 | COc1ccc(-c2cc3ccc(OCC(C)=O)cc3oc2=O)cc1 | inconclusive [inhibitor, single point] | –
7 | O=C(Cc1ccccc1)NCC1COc2ccccc2O1 (stereo not drawn) | – | inactive: 18.4%
8 | Nc1nc(N)c(-c2cccc(C(F)(F)F)c2)c(Cc2cccc(C(F)(F)F)c2)n1 | inconclusive [inhibitor, single point] | –
9 | CCCCOc1ccc(C(=O)Nc2cccc(-n3cnnn3)c2)cc1OC | inconclusive [inhibitor, partial curve] | –
10 | COc1ccc(C2c3ccc(O)cc3Oc3ncn4nc(-c5ccccn5)nc4c32)cc1OC (stereo not drawn) | inconclusive [inhibitor, partial curve] | –
11 | CCOc1cccc(C(=O)Nc2ccc(N(CC)CC)cc2)c1 | inconclusive [inhibitor, single point] | –
12 | Cc1cc2c(cc1[N+](=O)[O-])NC(CNC(C)C)CC2 (stereo not drawn) | inconclusive [inhibitor, single point] | –
13 | Cc1cc(N2CCOCC2)ccc1/C=C1\NC(=O)N(Cc2ccccc2)C1=O | inconclusive [inhibitor, partial curve] | –
14 | CCOc1nc(-c2ccccc2Cl)nc2ccccc12 | – | inactive: -15.4%
15 | CCCCNC(=O)c1ccccc1NC(=O)c1ccc2c(c1)OCO2 | inconclusive [inhibitor, single point] | –
16 | Cc1ccccc1OCC(=O)Nc1ccc(N2CCN(C(=O)c3ccco3)CC2)cc1 | inconclusive [inhibitor, single point] | –
17 | O=C(NNC(=O)C1CCN(S(=O)(=O)c2cccc(C(F)(F)F)c2)CC1)C1CC1 | – | inactive: 8.73%
18 | Cc1cc2oc3ccc(NCCC4CCCN4C)cc3c(=O)c2cc1C (stereo not drawn) | active: 14.1 µM | –
19 | CC(=O)c1cccc(CN2CCC(C(=O)Nc3ccc(-c4cccc(C)c4)cc3)CC2)c1 | inconclusive [inhibitor, partial curve] | –
20 | CCn1c(Cc2ccc(OC)cc2)nnc1SCC(=O)NC1CC1 | – | inactive: 17.5%
21 | COc1cc2cc(C(=O)Nc3ccc4c(c3)OCCO4)[nH]c2cc1OC | inconclusive [inhibitor, partial curve] | –
22 | FC(F)Oc1ccc(N=C2SCC3CCCCN23)cc1 (stereo not drawn) | inconclusive [inhibitor, partial curve] | –
23 | CCSc1nc(O)cc(=O)n1CC | – | inactive: 8.55%
24 | Brc1ccc2nc3c(n2c1)CCCC3 | inconclusive [inhibitor, partial curve] | –

Row | Structure (SMILES) | Potency | activity change, negative = inhibition
25 | COc1ccc(-c2c3c(=O)n(C)c(=O)n(C)c3cn2-c2ccccc2)cc1 | inconclusive [inhibitor, partial curve] | –
26 | O=C(CN(Cc1ccc(Cl)cc1)C(=O)CNS(=O)(=O)c1ccc(F)cc1)NCC1CCCO1 (stereo not drawn) | – | inactive: 5.93%
27 | CCN1CCc2c(sc(NC(=O)Nc3ccc(Cl)c(Cl)c3)c2C(N)=O)C1 | inconclusive [inhibitor, partial curve] | –
28 | Cc1ccc(-c2nc(S(=O)(=O)c3ccccc3)c(SCC(=O)NCC3CCCO3)o2)cc1 (stereo not drawn) | inconclusive [inhibitor, single point] | –
29 | COc1ccc(C(=O)OCC(=O)NCc2ccco2)cc1OC | inconclusive [inhibitor, single point] | –
30 | Oc1ccccc1/C=N/NC(=S)NCCc1ccccc1 | active: 11.2 µM | –
31 | Cc1cc(C)c(-c2cc(NC(=O)CSc3nncn3C)n(-c3ccccc3)n2)cc1C | inconclusive [inhibitor, single point] | –
32 | O=C1c2ccccc2C(=O)N1CCCCNc1ccccc1 | inconclusive [inhibitor, full curve] | –
33 | COc1ccc(C2(C)NC(=O)N(CC(=O)Nc3ccc(C)cc3Br)C2=O)cc1OC (stereo not drawn) | – | inactive: -26%
34 | O=C(CCNC(=O)c1ccc(Br)cc1)NC1CCCc2ccccc21 (stereo not drawn) | – | inactive: -22.4%
35 | CC(=O)Nc1ccccc1C(=O)OCc1ccccc1F | inconclusive [inhibitor, partial curve] | –
36 | O=c1cc(-c2ccc(F)cc2F)[nH]c2ccccc12 | – | inactive: 0.614% [at 8.37 µM]
37 | Cc1ccc(C(NC(=O)/C=C\c2ccc3c(c2)OCO3)C(=O)Nc2ccc3c(c2)OCO3)cc1 (stereo not drawn) | inconclusive [inhibitor, partial curve] | –
38 | CCc1c(C)sc(NC(=O)c2cc(C)no2)c1C#N | – | inactive: 3.63%
39 | CN(C)Cc1ccccc1C1(O)c2ccccc2CSc2ccccc21 (stereo not drawn) | inconclusive [inhibitor, single point] | –
40 | COc1cc(/C=C/C(=O)O)ccc1OS(=O)(=O)c1c(C)cc(C)cc1C | – | inactive: 13.3%
41 | CCc1cc(C(=O)N2CCCC(C(=O)c3cccc4ccccc34)C2)n(C)n1 (stereo not drawn) | active: 10 µM | –
42 | Cc1ccc(NC(=O)CSCC(=O)Nc2ccccc2N2CCCC2)cc1 | – | inactive: -8.93%
43 | COc1ccc(NC(=O)C2CCN(S(=O)(=O)c3ccc4c(c3)CC(C)N4C(C)=O)CC2)c(OC)c1 (stereo not drawn) | inconclusive [inhibitor, single point] | –
44 | COc1ccc(C(=O)C[n+]2ccc(N(C)C)cc2)cc1 | inconclusive [inhibitor, single point] | –
45 | COc1ccc(-c2csc(=Nc3ccccc3)n2CCO)cc1 | active: 12.6 µM | inactive: 0.805% [at 0.335 µM]
46 | COc1ccc(CNS(=O)(=O)c2ccc(N3CCCC3)cc2Br)cc1 | inconclusive [inhibitor, single point] | –
47 | CN(C)Cc1c(C(=O)N/N=C/c2cccc(OCc3c(F)cccc3Cl)c2)nnn1-c1nonc1N | inconclusive [inhibitor, partial curve] | –
48 | O=C(COC(=O)c1cnccn1)NCCc1ccccc1 | – | inactive: 6.59%

Row | Structure (SMILES) | Potency | activity change, negative = inhibition
49 | COc1cccc(C(C(=O)NC2CCCCC2)N(C(=O)c2cccs2)c2ccc3c(c2)OCO3)c1 (stereo not drawn) | inconclusive [inhibitor, single point] | –
50 | COc1ccc(-c2nc(CN(Cc3cnn(C)c3)C(C)C)c(C)o2)c(OC)c1 | inconclusive [inhibitor, partial curve] | –
51 | NS(=O)(=O)c1ccc(N=Nc2c(O)c(C(=O)O)cc3ccccc23)cc1 | inconclusive [inhibitor, single point] | –
52 | Cc1ccc(O)c(NC(=O)CN(C)S(=O)(=O)c2ccc(Cl)cc2)c1 | inconclusive [inhibitor, single point] | –
53 | Cc1ccc(S(=O)(=O)N2CCCC2C(=O)NCCc2nc3ccccc3[nH]2)cc1 (stereo not drawn) | inconclusive [inhibitor, single point] | –
54 | O=C(CNC(=O)C1CCCCC1)Nc1ccc(Cl)cc1 | – | inactive: 3.17%
55 | COc1ccc(CCNC(=O)C(=O)NCC2OCCN2S(=O)(=O)c2ccc(OC)c(OC)c2)cc1OC (stereo not drawn) | inconclusive [inhibitor, single point] | –
56 | CC(=O)c1ccc(OCCCC(=O)N(CCC2=CCCCC2)c2c(N)n(Cc3ccccc3)c(=O)[nH]c2=O)cc1 | inconclusive [inhibitor, partial curve, poor fit] | –
57 | CCSc1nnc(NC(=O)c2c(C)noc2C)s1 | – | inactive: 11.8%
58 | COc1ccc([C@H]2CC(=O)C=C(c3ccc(OC)c(OC)c3)C2)cc1 | inconclusive [inhibitor, single point] | –
59 | Cn1c(=O)c2c(nc(SCC(=O)NCc3ccc4c(c3)OCO4)n2Cc2ccc(F)cc2)n(C)c1=O | inconclusive [inhibitor, full curve] | –
60 | CCCC[C@@H]1CNCCN1CCc1cccc2ccccc12 | inconclusive [inhibitor, single point] | –
61 | c1ccc(OCc2nc(-c3ccccc3)no2)cc1 | – | inactive: 7.28%
62 | O=C1CN(S(=O)(=O)c2cc(C(=O)O)ccc2Cl)c2ccccc2N1 | – | inactive: 10.5%
63 | O=C(CSc1ccc(C(F)(F)F)cc1[N+](=O)[O-])Nc1ccccc1 | inconclusive [inhibitor, single point] | –
64 | O=C(CSc1nccc(-c2cccs2)n1)Nc1ccc(Cl)cc1 | inconclusive [inhibitor, single point] | –
65 | COC(=O)c1cccc(CSc2nnc(-c3ccco3)n2-c2ccccc2)c1 | inconclusive [inhibitor, single point] | –
66 | O=C(Nc1ccccc1)Nc1cccc2cccnc12 | inconclusive [inhibitor, full curve, poor fit] | –
67 | CN1C[C@@H]2[C@@H]3C(=O)N(C)C(=O)[C@@H]3[C@](C)(C1=O)N2C(=O)c1ccc(Cl)c(Cl)c1 | – | inactive: 15.1%
68 | Nc1cccc(-c2nc3ccccc3s2)c1 | – | inactive: -29.6%
69 | COc1ccc(CN2CCN(C(=O)c3ccco3)CC2)cc1OCc1ccccc1 | inconclusive [inhibitor, single point] | –
70 | Cn1c(CO)c(-c2ccccc2)c2cc([N+](=O)[O-])ccc21 | active: 10 µM | –
71 | O=C(Cn1nnc2ccccc21)c1ccc([N+](=O)[O-])cc1 | – | inactive: 4.9%
72 | Cc1cc(NC(=O)CSc2nnc(-c3ccccc3Cl)o2)no1 | inconclusive [inhibitor, partial curve] | –
